This is an account of results in patent publication US20200123252A1 (LAMKAP BIO BETA, published 2020).

For experiment [1], the target named is T1, human CD47 on MKN45 cells (human, UniProt Q08722).
T1 construct: whole, on cells; also called IAP
Put plainly: inhibition of SIRPα-mouseFc binding to CD47 on MKN45 cells, imaging (CX5). The text has this:
The detection of bound SIRPα cell-based assay monitoring the interaction of soluble SIRPα with human CD47 expressed at the surface of MKN45 is used for the detection of the blocking activity. Dose-response experiments with bispecific antibodies according to the invention allow determination of an IC50 value.
MKN45 cancer cells, expressing both CD47 and CEACAM5, are stained with CFSE violet to allow the imaging system (CX5) to detect the cells. Briefly, 3,000 stained MKN45 cells per well are seeded in a 384 optical well plate (Costar) and incubated for 50 minutes with increased concentrations of bispecific antibodies of the invention (1.9 pM to 333 nM, in quadruplicates). Then, a fixe concentration of SIRPα-mouseFc premixed with anti-mouse IgG-Fc AF647 coupled antibody (Jackson Immunoresearch diluted 1:2000) is added at 50 ng/mL final. After an incubation of 3H30 plates are acquired with the imaging system (CX5, Thermofisher) and fluorescence signals emitted by the detected bound SIRPα is recorded by the software dedicated to the imaging system. Fluorescence signals are plotted according to the dose range tested and IC50 are calculated by the software (Prism, Graphpad).

The target in experiment [2] is T2, human CEACAM5 on MKN-45 cells (human, UniProt P06731 35-685).
T2 construct: Endogenous CEACAM5 on MKN-45 gastric adenocarcinoma cells, which also carry CD47 (and CEACAM6); also called CD66e; MKN45 CEA+ cancer cells
T2 sequence: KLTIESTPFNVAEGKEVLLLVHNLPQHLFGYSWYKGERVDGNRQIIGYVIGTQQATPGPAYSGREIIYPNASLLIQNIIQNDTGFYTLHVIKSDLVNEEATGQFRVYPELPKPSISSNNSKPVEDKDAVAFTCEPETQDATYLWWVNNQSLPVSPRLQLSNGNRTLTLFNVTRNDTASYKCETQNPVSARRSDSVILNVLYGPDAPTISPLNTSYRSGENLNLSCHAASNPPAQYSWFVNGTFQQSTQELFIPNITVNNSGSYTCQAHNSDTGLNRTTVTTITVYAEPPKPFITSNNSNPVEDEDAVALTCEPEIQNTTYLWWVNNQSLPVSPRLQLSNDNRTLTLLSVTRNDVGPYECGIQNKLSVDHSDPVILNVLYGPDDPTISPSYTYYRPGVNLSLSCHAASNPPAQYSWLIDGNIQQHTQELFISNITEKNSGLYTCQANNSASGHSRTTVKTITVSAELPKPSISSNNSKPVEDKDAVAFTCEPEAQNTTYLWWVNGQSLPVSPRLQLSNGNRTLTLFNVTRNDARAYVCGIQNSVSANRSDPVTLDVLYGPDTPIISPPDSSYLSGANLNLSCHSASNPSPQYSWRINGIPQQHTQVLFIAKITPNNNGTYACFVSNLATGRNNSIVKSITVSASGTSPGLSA
Kind of experiment: flow cytometry on MKN45 CEA+ cells (carry CEACAM5 and CD47).

B1: K2AC23 CEA×CD47 bispecific antibody (bispecific antibody, human IgG1, kappa, lambda)
heavy: [about 120 residues not given here][about 100 residues not given here][human IgG1 Fc not given here]
light 1: QSVLTQPPSASGTPGQRVTISCSGSSSNIGYGLVNWYQQLPGTAPKLLIYATNTRPSGVPDRFSGSKSGTSASLAISGLQSEDEADYYCAAWDFSYKVVFGGGTKLTVLGQPKAAPSVTLFPPSSEELQANKATLVCLISDFYPGAVTVAWKADSSPVKAGVETTTPSKQSNNKYAASSYLSLTPEQWKSHRSYSCQVTHEGSTVEKTVAPTECS
light 2: DIQMTQSPSSLSASVGDRVTITCRASQSISSYLNWYQQKPGKAPKLLIYAASSLQSGVPSRFSGSGSGTDFTLTISSLQPEDFATYYCQQMHPRAPKTFGQGTKVEIKRTVAAPSVFIFPPSDEQLKSGTASVVCLLNNFYPREAKVQWKVDNALQSGNSQESVTEQDSKDSTYSLSSTLTLSKADYEKHKVYACEVTHQGLSSPVTKSFNRGEC
notes: κλ body, human IgG1, common heavy chain; CEACAM5 arm light chain 1A8 (AC23)
On to B1, for which the IC50 in experiment [1] came to 1.6 nM. The same molecule yielded an EC50 in experiment [2] of 76.8 nM.
